Among the data in patent publication US9493440B2, “Compounds inhibiting leucine-rich repeat kinase enzyme activity” (Merck Sharp & Dohme Corp., priority 2013, dated 2016) are IC50 values, retold here.

Each structure is given as a SMILES string. Some results are limits rather than exact numbers.

The target of assay [1] is T1, LRRK2(G2019S mutation, GST-LRRK2(amino acids 970-2527)) (Homo sapiens (Human), UniProt Q5S007, G2019S). Briefly: LRRK2 Km ATP LanthaScreen Assay.
Assay [2] concerns the target T1, LRRK2(G2019S mutation, GST-LRRK2(amino acids 970-2527)). Description: LRRK2 5 mM ATP LanthaScreen Assay. In kind it is biochemical. Conditions: mean IC50. On the procedure:
LRRK2 5 mM ATP LanthaScreen™ Assay
Results are analysed using Assay Data Analyzer. […] Results are analysed using Assay Data Analyzer.

The mark [3] stands for this setting: read-out: LRRK2 IC50, Km ATP LanthaScreen Assay, mean IC50.

In the case of `CC1(Oc2ccc3[nH]nc(-c4cc(N5CCN(S(C)(=O)=O)CC5)ncn4)c3c2)CC1` [Example 3], the IC50 in assay [1] (setting [3]) is 2.26 nM; in assay [2], 11 nM.

With `CC1(Oc2ccc3[nH]nc(-c4cc(N5CCC(C(=O)O)CC5)ncn4)c3c2)CC1` [Example 10], the 50% inhibitory concentration (IC50) stood at 1.3 nM in assay [1] (setting [3]) and 8.8 nM in assay [2].

For `CO[C@@H]1CCN(c2cc(-c3n[nH]c4ccc(OC5(C)CC5)cc34)ncn2)C1` [Example 11], the IC50 was 1.85 nM in assay [1] (setting [3]) and 12 nM in assay [2].

With `CC1(Oc2ccc3[nH]nc(-c4cc(N5CCC6(CCCO6)CC5)ncn4)c3c2)CC1` [Example 25], the IC50 in assay [1] (setting [3]) was found to be 1.21 nM; in assay [2] it was 2.4 nM.

In assay [2], `CCS(=O)(=O)N1CCN(c2cc(-c3n[nH]c4ccc(OC5(C)CC5)cc34)ncn2)CC1` [Example 36] registered an IC50 of 3.7 nM.

Turning to `CC1(Oc2ccc3[nH]nc(-c4cc(N5CCC6(CC5)CNC(=O)C6)ncn4)c3c2)CC1` [Example 38], the half-maximal inhibitory concentration (IC50) is below 0.6 nM in assay [1] (setting [3]) and 5.1 nM in assay [2].

Consider `CC1(Oc2ccc3[nH]nc(-c4cc(N5CCN(C(=O)C6CC6)CC5)ncn4)c3c2)CC1` [Example 40], for which the IC50 in assay [1] (setting [3]) amounted to 1.07 nM; in assay [2], 9 nM.

Take `CN1CCN(c2cc(-c3n[nH]c4ccc(OC5(C)CC5)cc34)ncn2)CC1` [Example 47]: the IC50 in assay [1] (setting [3]) is 1.2 nM; in assay [2], 10 nM.

In the case of `CC(C)N1CCN(c2cc(-c3n[nH]c4ccc(OC5(C)CC5)cc34)ncn2)CC1` [Example 75], the IC50 in assay [1] (setting [3]) stood at 1.6 nM; in assay [2], 14 nM.

For the compound `C[C@@H]1COC[C@@H](C)N1c1cc(-c2n[nH]c3cc(F)c(OC4(C)CC4)cc23)ncn1` [Example 191], the half-inhibitory concentration (IC50) in assay [1] (setting [3]) is 13 nM.

Turning to `C[C@@H]1COC[C@H](C)N1c1cc(-c2n[nH]c3cc(F)c(OC4(C)CC4)cc23)ncn1` [Example 192], in assay [1] (setting [3]), the IC50 is 1.6 nM.

With `CC1c2nc(C(F)(F)F)nn2CCN1c1cc(-c2n[nH]c3cc(F)c(OC4(C)CC4)cc23)ncn1` (centres unmarked) [Example 193], in assay [1] (setting [3]), the half-inhibitory concentration (IC50) came to 16.8 nM.

For `CC1(Oc2cc3c(-c4cc(N5C6CCC5COC6)ncn4)n[nH]c3cc2F)CC1` [Example 194], in assay [1] (setting [3]), the IC50 is 1.1 nM.

For the compound `COCC(=O)N1CCN(c2cc(-c3n[nH]c4cc(F)c(OC5(C)CC5)cc34)ncn2)CC1` [Example 195], in assay [1] (setting [3]), the IC50 amounted to 0.8 nM.

Consider `CCC1(Oc2ccc3[nH]nc(-c4cc(N5CCO[C@H](C)C5)ncn4)c3c2)COC1` [Example 196], for which the IC50 in assay [1] (setting [3]) amounted to 1.51 nM.

Consider `CCC1(Oc2ccc3[nH]nc(-c4cc(N5C[C@@H](C)O[C@@H](C)C5)ncn4)c3c2)COC1` [Example 197], for which the IC50 in assay [1] (setting [3]) amounted to 0.89 nM.

For `CCC1(Oc2ccc3[nH]nc(-c4cc(N5CC6CCC(C5)O6)ncn4)c3c2)COC1` [Example 198], in assay [1] (setting [3]), the IC50 came to 2.8 nM.

The compound `CCOCC1(Oc2ccc3[nH]nc(-c4cc(N5CCOCC5)ncn4)c3c2)CC1` [Example 202] showed an IC50 in assay [1] of 2.3 nM.

As for `CC1(Oc2cc3c(-c4cc(N5CC[C@@H](N)C5)ncn4)n[nH]c3cc2F)CC1` [Example 203], in assay [1] (setting [3]), the IC50 stood at 1.38 nM.

`CC1(Oc2cc3c(-c4cc(N5CC[C@H](N)C5)ncn4)n[nH]c3cc2F)CC1` [Example 204]: the half-maximal inhibitory concentration (IC50) in assay [1] (setting [3]) came out at 1.59 nM.

Consider `C[C@H]1C[C@@H](N)CN1c1cc(-c2n[nH]c3cc(F)c(OC4(C)CC4)cc23)ncn1` [Example 205], for which the IC50 in assay [1] (setting [3]) amounted to 1.29 nM.

On to `C[C@H]1[C@H](N)[C@@H](O)CN1c1cc(-c2n[nH]c3cc(F)c(OC4(C)CC4)cc23)ncn1` [Example 206], for which, in assay [1] (setting [3]), the IC50 came out at 0.99 nM.

For the compound `CCC1(Oc2ccc3[nH]nc(-c4cc(N5CCO[C@@H](C)C5)ncn4)c3c2)CC1` [Example 207], the IC50 in assay [1] (setting [3]) came out at 1.61 nM.

In the case of `CCC1(Oc2ccc3[nH]nc(-c4cc(N5CCOCC5)ncn4)c3c2)CC1` [Example 208], in assay [1] (setting [3]), the IC50 was found to be 0.95 nM.

On to `CCC1(Oc2ccc3[nH]nc(-c4cc(N5CC6CCC(C5)O6)ncn4)c3c2)CC1` [Example 209], for which the IC50 in assay [1] (setting [3]) amounted to 3.2 nM.

Regarding `CCC1(Oc2ccc3[nH]nc(-c4cc(N5C[C@@H](C)O[C@@H](C)C5)ncn4)c3c2)CC1` [Example 210], the IC50 in assay [1] (setting [3]) was 1.14 nM.

Regarding `CCC1(Oc2ccc3[nH]nc(-c4cc(N5CCO[C@H](C)C5)ncn4)c3c2)CC1` [Example 211], in assay [1] (setting [3]), the IC50 is 0.99 nM.

With `CCC1(Oc2ccc3[nH]nc(-c4cc(N5CC[C@@H](N)C5)ncn4)c3c2)CC1` [Example 212], the half-inhibitory concentration (IC50) in assay [1] (setting [3]) was found to be 1.98 nM.

With `CCC1(Oc2ccc3[nH]nc(-c4cc(N5CC[C@H](N)C5)ncn4)c3c2)CC1` [Example 213], the IC50 in assay [1] (setting [3]) is 3.43 nM.

Regarding `CCC1(Oc2ccc3[nH]nc(-c4cc(N5C[C@H](O)[C@@H](N)[C@@H]5C)ncn4)c3c2)CC1` [Example 214], the IC50 in assay [1] (setting [3]) is 3.1 nM.

Consider `CCC1(Oc2ccc3[nH]nc(-c4cc(N5C[C@H](N)C[C@@H]5C)ncn4)c3c2)CC1` [Example 215], for which the half-inhibitory concentration (IC50) in assay [1] (setting [3]) came to 2.59 nM.

As to `CCC1(Oc2ccc3[nH]nc(-c4cc(N5CCN(C)C(=O)C5)ncn4)c3c2)CC1` [Example 216], the IC50 in assay [1] (setting [3]) is 1.27 nM.

Take `CCC1(Oc2ccc3[nH]nc(-c4cc(N5C[C@H](O)[C@@H](O)[C@@H]5C)ncn4)c3c2)CC1` [Example 217]: in assay [1] (setting [3]), the IC50 came to 1.63 nM.

With `CCC1(Oc2ccc3[nH]nc(-c4cc(N5CCN(C)CC5)ncn4)c3c2)CC1` [Example 218], the 50% inhibitory concentration (IC50) in assay [1] (setting [3]) was determined as 1.49 nM.

Take `CCC1(Oc2ccc3[nH]nc(-c4cc(N5CCN(S(C)(=O)=O)CC5)ncn4)c3c2)CC1` [Example 219]: the 50% inhibitory concentration (IC50) in assay [1] (setting [3]) came out at 0.67 nM.

`C[C@H]1[C@H](O)[C@@H](O)CN1c1cc(-c2n[nH]c3ccc(OC4(C)CC4)cc23)ncn1` [Example 220]: in assay [1] (setting [3]), the concentration for half-maximal inhibition (IC50) worked out at 1.77 nM.

With `C[C@H]1C[C@@H](N)CN1c1cc(-c2n[nH]c3ccc(OC4(C)CC4)cc23)ncn1` [Example 221], the IC50 in assay [1] (setting [3]) was determined as 1.54 nM.

Take `C[C@H]1[C@H](N)[C@@H](O)CN1c1cc(-c2n[nH]c3ccc(OC4(C)CC4)cc23)ncn1` [Example 222]: in assay [1] (setting [3]), the half-inhibitory concentration (IC50) stood at 2.33 nM.

With `CCCN1CCN(c2cc(-c3n[nH]c4ccc(OC5(C)CC5)cc34)ncn2)CC1=O` [Example 223], in assay [1] (setting [3]), the IC50 was determined as 1.04 nM.

Turning to `CC1(Oc2ccc3[nH]nc(-c4cc(N5CCN(CCF)C(=O)C5)ncn4)c3c2)CC1` [Example 224], in assay [1] (setting [3]), the IC50 was determined as 1.81 nM.

For the compound `COCCOC1CCN(c2cc(-c3n[nH]c4ccc(OC5(C)CC5)cc34)ncn2)CC1` [Example 227], in assay [1] (setting [3]), the IC50 stood at 0.94 nM.

`CC1(Oc2ccc3[nH]nc(-c4cc(N5CCC(O)CC5)ncn4)c3c2)CC1` [Example 228]: the IC50 in assay [1] (setting [3]) came to 0.79 nM.

For `COC1CCN(c2cc(-c3n[nH]c4ccc(OC5(C)CC5)cc34)ncn2)CC1` [Example 229], the IC50 in assay [1] (setting [3]) amounted to 1.03 nM.

In the case of `CC1(Oc2ccc3[nH]nc(-c4cc(N5CCN(CCF)CC5)ncn4)c3c2)CC1` [Example 230], the IC50 in assay [1] (setting [3]) came out at 0.45 nM.

Regarding `CC1(Oc2ccc3[nH]nc(-c4cc(N5CCN(CCO)C(=O)C5)ncn4)c3c2)CC1` [Example 231], in assay [1] (setting [3]), the IC50 is 0.73 nM.

With `CN1C2CCC1CN(c1cc(-c3n[nH]c4ccc(OC5(C)CC5)cc34)ncn1)C2` [Example 235], the IC50 in assay [1] (setting [3]) came to 4.44 nM.

On to `CC1(Oc2ccc3[nH]nc(-c4cc(NC5CCOCC5)ncn4)c3c2)CC1` [Example 236], for which the IC50 in assay [1] (setting [3]) stood at 1.71 nM.

`C[C@H]1CN(c2cc(-c3n[nH]c4ccc(OC5(C)CC5)cc34)ncn2)CCN1C` [Example 237] came in with an IC50 in assay [1] of 0.6 nM.

Compound `COC[C@H]1CN(c2cc(-c3n[nH]c4ccc(OC5(C)CC5)cc34)ncn2)CCO1` [Example R2] showed an IC50 in assay [1] of 0.8 nM.

Regarding `C[C@@H]1CN(c2cc(-c3n[nH]c4ccc(OC5(C)CC5)cc34)ncn2)C[C@H](C)N1C` [Example T2], the results for the IC50 in assay [1] and in assay [2] were 0.8 nM and 0.49 nM, respectively.

Consider `C[C@H]1CN(c2cc(-c3n[nH]c4ccc(OC5(C)CC5)cc34)ncn2)CCN1S(C)(=O)=O` [Example U2], for which, in assay [1] (setting [3]), the IC50 came to 1.18 nM.

Consider `C[C@@H]1CN(c2cc(-c3n[nH]c4ccc(OC5CCOCC5)cc34)ncn2)C[C@H](C)O1` [Example V1], for which the IC50 in assay [1] (setting [3]) came out at 24 nM.

The compound `c1nc(-c2n[nH]c3ccc(OC4CCOCC4)cc23)cc(N2CCOCC2)n1` [Example V2] displayed a concentration for half-maximal inhibition (IC50) in assay [1] of 28.6 nM.
